Test results as given in the RNAGym collection of RNA variant scans (doi:10.7554/elife.90254).
The source gives no read counts; variants with many changes may rest on few reads.

B1: OR4K15 (parent)
chain: GUUAACGGUCAUAGGCCAUGGAAACUAGGAGCACCAUUUCGCUGCCAGUGAAGAAAUGAACAAAGAAAAUCUGGGCCAGGCAGGCAUCAAAAGAAAUAGUCUUGCGCUCAACCAGAAAGUCUGUAAUCAUUUUAAGGGUA

Variants of: B1
Assay: self-cleavage, relative activity (ratio to wild type); higher = more cleavage; in vitro, sequencing; the parent is a self-cleaving ribozyme

Variant	self-cleavage
GUUAACGGUCAUAGGCCAUGGAAACUAGGAGCACCAUUUCGCCGCCAGUGAAGAAAUGAACAAAGAAAACCCGGGCCAGGCAGGCAUCAAAAGAAAUAGUCCUGCGCUCAACCAGAAAGUCUGUAAUCAUUUUAAGGGUA [U43C U70C U72C U102C]	0.27
GUUAACGGUCAUAGGCCAUGGAAACUAGGAGCACCAUUUCGCCGCCAGUGAAGAAAUGAACAAAGAAAAUCUGGGCCAGGCAGGCAUCAAAAGAAAUAGUCUUGCGCUCAACCAGAAAGCCUGCAAUCAUUUUAAGGGUA [U43C U120C U124C]	0.49
GUUAACGGUCAUAGGCCAUGGAAACUAGGAGCACCAUUUCGCCGCCAGUGAAGAAAUGAACAAAGAAAAUCUGGGCCAGGCAGGCACCGAAAGAGAUAGUCUUGCGCUCAACCAGAAAGUCUGUAAUCAUUUUAAGGGUA [U43C U87C A89G A95G]	1.07
GUUAACGGUCAUAGGCCAUGGAAACUAGGAGCACCAUUUCGCCGCCAGCGAAGAAAUGAACAAAGAAAGUCUGGGCCAGGCAGGCAUCAAAAGAAAUAGUCUUGCGCUCAACCAGAAAGUCUGUAAUCAUUUUAAGGGUA [U43C U49C A69G]	0.61
GUUAACGGUCAUAGGCCAUGGAAACUAGGAGCACCAUUUCGCCGCCAGUGAAGAAAUGAACAAAGAAAAUCUGGGCCAGGCAGGCAUCAAAAGAAAUAGUCUUGCGCCCAACCAGGAAGUCUGUAAUCAUUUUAAGGGUA [U43C U108C A116G]	0.01
GUUAACGGUCAUAGGCCAUGGAAACUAGGAGCACCAUUUCGCGGCCAGUGAAGGAAUGAACAAAGAAAACCUGGGCCAGGCAGGCAUCAAAAGAAAUAGUCUUGCGCUCAACCAGAAAGUCUGUAAUCAUUUUAAGGGUA [U43G A54G U70C]	1.08
GUUAACGGUCAUAGGCCAUGGAAACUAGGAGCACCAUUUCGCCGCCAGUGAAGAAAUGAACAAAGAAAAUCUGGGCCAGGCAGGCACCAAAAGAAAUAGUCUUGCGCUCAACCAGAAAGUCUGUAAUCAUUCUAAGGGUA [U43C U87C U132C]	1.44
GUUAACGGUCAUAGGCCAUGGAAACUAGGAGCACCAUUUCGCCGCCAGUGAAGAAAUGAACAAAGAAAAUCAGGGCCAGGCAGGCAUCAAAAGAAAUAGUCUUGCGCUCAACCAGAAAGUCUGUAACCAUUUUAAGGGUA [U43C U72A U127C]	0.16
GUUAACGGUCAUAGGCCAUGGAAACUAGGAGCACCAUUUCGCGGCCAGUGAAGAAAUGAACAAAGAAAAUCUGGGCCAGGCAGGCAUCAAAAGAAAUAGUCUUGCGCUCAACCAGAAAGCCUGUAAUCAUCUUAAGGGUA [U43G U120C U131C]	1.56
GUUAACGGUCAUAGGCCAUGGAAACUAGGAGCACCAUUUCGCCGCCAGUGAAGAAAUGAACAAAGAAAAUCUGGGCCAGGCAGGCACCAAAAGAAAUAGUCUUGCGCUCAACCAGAAGGUCUGUAAUCAUUUUAAGGGUA [U43C U87C A118G]	0.34
GUUAACGGUCAUAGGCCAUGGAAACUAGGAGCACCAUUUCGCCGCCAGCGAAGAGAUGAACAAAGAAAAACUGGGCCAGGCAGGCAUCAAAAGAAAUAGUCUUGCGCUCAACCAGAAAGUCUGUAAUCAUUUUAAGGGUA [U43C U49C A55G U70A]	1.5
GUUAACGGUCAUAGGCCAUGGAAACUAGGAGCACCAUUUCGCCGCCAGUGAAGAAAUGAACAAAGAAAAUCUGAGCCAGGCAGGCGUCAAAAGAAAUAGUCUUGCGCUCAACCAGGAAGUCUGUAAUCAUUUUAAGGGUA [U43C G74A A86G A116G]	0.05
GUUAACGGUCAUAGGCCAUGGAAACUAGGAGCACCAUUUCGCCGCCAGUGAAGAAAUGAACAAAGAAAAUCUGGGCCAGGCAGGCAUCAAAAGAAAAAGUCUUGCGCUCAACCAGAAAGUCUGUAAUCGUUUUAAGGGUA [U43C U97A A129G]	0.97
GUUAACGGUCAUAGGCCAUGGAAACUAGGAGCACCAUUUCGCGGCCAGUGAAGAAAUGAACAAAGAGAAUCUGGGCCAGGCAGGCAUCAAAAGAAAUAGUCUUGCGCUCAACCUGAAAGUCUGUAAUCAUUUUAAGGGUA [U43G A67G A114U]	0.07
GUUAACGGUCAUAGGCCAUGGAAACUAGGAGCACCAUUUCGCCGCCAGUGAAGAAAUGAACAAAGAAAAUCAGGGCCAGGCAGGCAUCGAAAGAAAUAGUCUUGCGCUCAACCAGAAAGUCUGUAAUCAUUUUAAGGGUA [U43C U72A A89G]	0.16
GUUAACGGUCAUAGGCCAUGGAAACUAGGAGCACCAUUUCGCCGCCAGUGAAGAAAUGAACAAAGAAAAUCUGGGCCAGGCAGGCAUCAAAAGAAAUAGUCUUGCGCCCAACCAGAAAGUCUGUGAUCAUUUUAAGGGUA [U43C U108C A125G]	0
GUUAACGGUCAUAGGCCAUGGAAACUAGGAGCACCAUUUCGCCGCCAGUGAAGAAAUGAACAAAGAAAAUCUGGGCCAGGCAGGCAUCAAAAGAAACAGUCUUGCGCUCAACCAGAAAGUCUGUAACCAUUUUAAGGGUA [U43C U97C U127C]	0.56
GUUAACGGUCAUAGGCCAUGGAAACUAGGAGCACCAUUUCGCCGCCAGUGAAGAAAUGAACAAAGAAAAUCUGGGCCAGGCAGGCAUCAAAAGAAAUAGUCUCGCGCUCAACCAGAGAGUCUGUAAUCAUUUUAAGGGUA [U43C U103C A117G]	1.84
GUUAACGGUCAUAGGCCAUGGAAACUAGGAGCACCAUUUCGCCGCCAGUGAAGAAAUGAACAAAGAAAAUCUGGGCUAGGCAGGCAUCAAAAGAAAUAGUCUUGCGCACAACCAGAAAGUCUGUAAUCAUUUUAAGGGUA [U43C C77U U108A]	0.03
GUUAACGGUCAUAGGCCAUGGAAACUAGGAGCACCAUUUCGCCGCCAGCGAAGAAGUGAACAAAGAAAAUCUGGGCCAGGCAGGCAUCAAAAGAAAUAGUCUUGCGCUCAACCAGAAAGUCUGUAAUCAUUUUAAGGGUA [U43C U49C A56G]	1.65
GUUAACGGUCAUAGGCCAUGGAAACUAGGAGCACCAUUUCGCCGCCAGUGAAGAAAUGAACAAAGAAAAUCUGGGCCAGGCAGGCACCAAAAGAAAUAGUCUUGCGCUCAACCAGAAAGUUUGUAAUCAUUUUAAGGGUA [U43C U87C C121U]	1.98

Variant	self-cleavage
GUUAACGGUCAUAGGCCAUGGAAACUAGGAGCACCAUUUCGCCGCCAGUGAAGAAACGAACAAAGAAAAUCCGGGCCAGGCAGGCAUCAAAAGAAAUAGACUUGCGCUCAACCAUAAAGUCUGUAAUCAUUUUAAGGGUA [U43C U57C U72C U100A G115U]	0.01
GUUAACGGUCAUAGGCCAUGGAAACUAGGAGCACCAUUUCGCGGCCAGUGAAGAAAUGGACAAAGAAAACCUGGGCCAGGCAGGCACCAAAAGAAAUAGUCUUGCGCUCAACCAGAAAGUCUGUAGUCAUUUUAAGGGUA [U43G A59G U70C U87C A126G]	1.27
GUUAACGGUCAUAGGCCAUGGAAACUAGGAGCACCAUUUCGCCGCCAGUGAAGAAAUGAACAAAGAAAAUCUGAGCCAGGCAGGCAUCAAAAGAAAUAGUCUUGCGCCCAACCAGAAAGUCUGUAAUCAUUUUAAGGGUA [U43C G74A U108C]	0.01
GUUAACGGUCAUAGGCCAUGGAAACUAGGAGCACCAUUUCGCGGCCAGUGAAGAAAUGAACAAAGAAAAUCUGGGCCAGGCAGGCAUCAAAAGAAAUAGUCCUGCGCUCAACCAGAAAGUCCGUAAUCAUUUUAAGGGUA [U43G U102C U122C]	2.16
GUUAACGGUCAUAGGCCAUGGAAACUAGGAGCACCAUUUCGCCGCCAGUGAAGAAAUGAACAAAGAAAAUCUGGGCCAGGCAGGCAUCAAAAGAAAUAGUCUUGCGCUCAACCAGAAAGUCUGUAAUCACCUUAAGGGUA [U43C U130C U131C]	0.81
GUUAACGGUCAUAGGCCAUGGAAACUAGGAGCACCAUUUCGCGGCCAGUGAAGAAAUGAACAAAGAAAAUCUGGGCCAGGCAGGCAUCAAAAGAAAUAGUCUUGCGCUCAACCAGAGAGUCUGUAAUCAAUUUAAGGGUA [U43G A117G U130A]	2.07
GUUAACGGUCAUAGGCCAUGGAAACUAGGAGCACCAUUUCGCGGCCAGUGAAGAAAUGAACAAAGAAAAUCUGGGCCAGGCAGGCAUCGAAAGAAAUAGUCUUGCGCUCAACCAGAAAGUCUGUAAUCAUUUUAAGGGUU [U43G A89G A140U]	2.22
GUUAACGGUCAUAGGCCAUGGAAACUAGGAGCACCAUUUCGCCGCCAGUGAAUAAAUGAACAAAGAAAAUCUGGGCCAGGCAGGCAUCAAAAGAAAUAGUCUUGCGCUCUACCAGAAAGUCUGUAGUCAUUUUAAGGGUA [U43C G53U A110U A126G]	1.01
GUUAACGGUCAUAGGCCAUGGAAACUAGGAGCACCAUUUCGCCGCCAGGGAAGAAAUGAACAAAGAAAAUCUGGGCCAGGCAGGCAUCAAAAGAAAUAGUCUUGCGCUCAACCAGAAAGUCUGUAAUCAUUUUAAAGGUA [U43C U49G G136A]	1.88
GUUAACGGUCAUAGGCCAUGGAAACUAGGAGCACCAUUUCGCCGCCAGUGAAGAAAUGAACAAAGAAAAACUGGGCCAGGCAGGCAUCAAAAGAAAUAGUCUUGCGCUCAACCAGAAGGUCUGUAAUCAUUUUAAGGGUA [U43C U70A A118G]	0.29
GUUAACGGUCAUAGGCCAUGGAAACUAGGAGCACCAUUUCGCGGCCAGUGAAGAAAUGAAUAAAGAAAAUCUGGGCCAGGCAGGCAUCAAAAGAAGUAGUCUUGCGCUCAACCAGAAAGUCUGUAAUCAUUUUAAGGGUA [U43G C61U A96G]	2.15
GUUAACGGUCAUAGGCCAUGGAAACUAGGAGCACCAUUUCGCCGCCAGUGAAGAAAUGAACAAAGAAAAUCUGGGCCAGGCAGGCAUCAAAAGAAAUAGUCUUGCGCUUAACCAGAAAGUCUGUAAUCACUCUAAGGGUA [U43C C109U U130C U132C]	0.26
GUUAACGGUCAUAGGCCAUGGAAACUAGGAGCACCAUUUCGCCGCCAGUGAAGAAAUGAACAAAGAAAACCUGGGCCAGGCAGGCAUCAAAAGAAAUAGUCUUGCGCUCAACCAGAAAGUCUGUAAUCAUCUUAAGGGUA [U43C U70C U131C]	0.32
GUUAACGGUCAUAGGCCAUGGAAACUAGGAGCACCAUUUCGCCGCCAGUGAAGAAAUGAACAAAGAAAAUCUGGGCCAGGCAGGCAUCAAAAGAAAUAGCCUUGCGCUCAACCAGAAAGUCUGUAAUCAUUCUAAGGGUA [U43C U100C U132C]	2.29
GUUAACGGUCAUAGGCCAUGGAAACUAGGAGCACCAUUUCGCCGCCAGCGAAGAAAUGAACAAAGAAAAUCUGGGCCAGGCAGGCAUCAAAAGAAAUAGUCUUGCGCUCAACCAGAGAGUCUGUAAUCAUUUUAAGGGUA [U43C U49C A117G]	1.09
GUUAACGGUCAUAGGCCAUGGAAACUAGGAGCACCAUUUCGCCGCCAAUGAAGAAAUGAACAAAGAAAAUCUGGGCCAGGCAGGCAUCAAAAGAGAUAGUCUCGCGCUCAACCAGAAAGUCUGUAAUCAUUCUAAGGGUA [U43C G48A A95G U103C U132C]	1.15
GUUAACGGUCAUAGGCCAUGGAAACUAGGAGCACCAUUUCGCCGCCAGUGAAGAAAUGAACAAAGAAAAUCUGGGCCAGGCAGGCAUCAAAAGAAAGAGUCUUGCGCUCAACCAGAAAGUCUGUAAUCAUUUUAAGAGUA [U43C U97G G137A]	1.74
GUUAACGGUCAUAGGCCAUGGAAACUAGGAGCACCAUUUCGCCGCCAGUGAAGAAAUGAACAAAGAAAAUCUGGGCCAGGCAGGCACCAGAAGAAAUAGUCUUGCGCUCUACCAGAAAGUCUGUAAUCAUCUUAAGGGUG [U43C U87C A90G A110U U131C A140G]	0.08
GUUAACGGUCAUAGGCCAUGGAAACUAGGAGCACCAUUUCGCCGCCAGUGAAGAAAUGAACAAAGAAAAUCUGGGCCAGGCAGGCAUCAAAAGAAAUAGUCUUGCGCUCAACCAAAAAGUCUGUAAUCACUUUGAGGGUA [U43C G115A U130C A134G]	0.02
GUUAACGGUCAUAGGCCAUGGAAACUAGGAGCACCAUUUCGCGGCCAGUGAAGAAAUGGACAAAGAAUAUCUGGGCCAGGCAGGCAUCAAAAGAAAUAGUCCUGCGCUCAACCAGAAAGUCUGUAAUCAUUUUAAGGGUA [U43G A59G A68U U102C]	2.56
